In ChEMBL document CHEMBL4888484, “Replenishing the malaria drug discovery pipeline: Screening and hit evaluation of the MMV Hit Generation Library 1 (HGL1) against asexual blood stage Plasmodium falciparum ,using a nano luciferase reporter read-out” (2022):
About 540 (0.36%) of roughly 150,000 compounds showed an effect of 50% or more. The list shows a part of the results.

These molecules were tested on Plasmodium falciparum (assay: Primary screen in NF54 nanoGlo assay, in single point, at 2uM, 72h; a lower Z score goes with more inhibition). Details: timepoint 72 hour.
Type: functional, Erythrocyte
In the case of `O=C(C1CCCC1)N1C[C@@H]2CN(Cc3cc(F)cc(F)c3)C[C@]2(C(=O)O)C1`, the “% Inhibition” value is reported as -16% and the Z score is reported as 1.46. With `CCN1c2cc(C(=O)NCc3ccccc3)ccc2C(=O)N2CCCC[C@H]21` the “% Inhibition” value was 34% and the Z score was -0.65. With `Cc1ccccc1[C@@]1(CC(=O)N2CCN(CCC(N)=O)CC2)CC(=O)N(Cc2cccnc2)C1=O` the “% Inhibition” value was 7% and the Z score was -0.98. `Cc1ccc(-c2ncccc2NC(=O)NC[C@H]2CCCN2S(C)(=O)=O)s1` was tested, and the “% Inhibition” value was -9% and the Z score was 1.75. With `O=C(NCC1CCC(F)(F)CC1)N1CCC([C@@H]2CCCO2)CC1` the “% Inhibition” value was -7% and the Z score was 0.9. For `CC(=O)NCCCNC(=O)NCC(C)(C)c1ccc(F)cc1Cl`, the “% Inhibition” value was 15% and the Z score was -2.03. With `C[C@H](NC(=O)c1cncc(O)c1)c1nncn1C` the “% Inhibition” value was -4% and the Z score was 0.69. For `C[C@@H](CC#N)N(C)C(=O)c1cccn(C)c1=O`, the “% Inhibition” value was 4% and the Z score was -0.48. For `COc1ccc(-c2cnc3ncnn3c2NCCc2ccc(Cl)cc2)cc1OC`, the “% Inhibition” value was 5% and the Z score was -0.69. For `CC(=O)Nc1ccc(NC(=O)c2ccccc2C(=O)c2ccc3c(c2)OCCO3)cc1`, the “% Inhibition” value was 24% and the Z score was -3.81. For `Cc1cc2c(NC(=O)N(Cc3ccsc3)CC(C)C)cccc2nn1`, the “% Inhibition” value was -6% and the Z score was 1.12. In the case of `COc1ccc(C(CNC(=O)C2CCCc3ccccc32)N2CCCCC2)cc1` (stereo not drawn), the “% Inhibition” value is reported as -1% and the Z score is reported as 0.28. For `CCCc1cc(C(=O)N2CCn3c(C(N)=O)cnc3C2)no1`, the “% Inhibition” value was -8% and the Z score was 1.18. For `Cc1ccc(C)c(-c2coc(-c3ccc(NC(=O)NCc4ccccc4)cc3)n2)c1`, the “% Inhibition” value was -4% and the Z score was 0.52. For `CCn1c(=O)c2ccn(CC(=O)NCc3cccc(Cl)c3)c2n(CC)c1=O`, the “% Inhibition” value was -20% and the Z score was 2.03. With `CN(CCCC(=O)Nc1ccccc1)C(=O)c1cscn1` the “% Inhibition” value was -1% and the Z score was 0.18. With `CCC(NS(=O)(=O)N(CC)CC(C)C#N)c1ccccc1OC(F)F` (stereo not drawn) the “% Inhibition” value was 0% and the Z score was 0.01. For `C=CCN(Cc1cc[nH]n1)c1ccccc1`, the “% Inhibition” value was -16% and the Z score was 2.58. In the case of `C[C@H](O)CNC(=O)c1ccc(Br)cc1Cl`, the “% Inhibition” value is reported as -13% and the Z score is reported as 1.52. `C[C@@H](Cn1cccn1)Nc1nc2c(cc1C(N)=O)CCC2` was tested, and the “% Inhibition” value was -9% and the Z score was 1.17. For `Cc1ccc(C)c(NC(=O)N2CCC(n3cnc4cccnc43)CC2)c1`, the “% Inhibition” value was 12% and the Z score was -1.65. With `O=C(C(c1ccccc1)c1ccccc1)N1CC(c2nc(-c3ccco3)no2)C1` the “% Inhibition” value was 3% and the Z score was -0.36. With `N#Cc1c(-c2ccc3c(c2)OCCO3)cc(-c2ccco2)nc1N` the “% Inhibition” value was -1% and the Z score was 0.25. For `O=C(Cn1c(=O)n(CCc2cccs2)c(=O)c2ccccc21)Nc1cc(F)cc(F)c1`, the “% Inhibition” value was -12% and the Z score was 1.84. In the case of `COc1cccc(NC(=O)c2cnn3c2NC(C(=O)O)=C[C@H]3c2ccccc2OC)c1`, the “% Inhibition” value is reported as 2% and the Z score is reported as -0.29. With `COc1ccc(-c2cnc3ncnn3c2NCc2cc(C(F)(F)F)cc(C(F)(F)F)c2)cc1OC` the “% Inhibition” value was 6% and the Z score was -0.61. For `CCc1c(C)nn(CC(=O)N2CCNC[C@H]2C(=O)N2CCOCC2)c1C`, the “% Inhibition” value was -12% and the Z score was 2.33. For `C=CCN=C(NCc1ccccc1CO)NC(C)C`, the “% Inhibition” value was -13% and the Z score was 1.5. With `NC(=O)c1ccc(C(F)(F)F)nc1N1CCC[C@H](Cn2ccnc2)C1` the “% Inhibition” value was -15% and the Z score was 1.44. `CNc1nc(C)ccc1C(=O)Nc1cc(C(F)(F)F)n[nH]1` was tested, and the “% Inhibition” value was -9% and the Z score was 0.99. `COc1cc(OC)c2ncnc(N3CC4(CCC4)C3C3CCCO3)c2c1` (stereo not drawn) was tested, and the “% Inhibition” value was 2% and the Z score was -0.38. With `N#CCC(=O)NCc1ccc(Cl)cc1Cl` the “% Inhibition” value was -14% and the Z score was 1.58. `Cc1ccccc1OCC(=O)N[C@@H]1C[C@H]2C(=O)NCC(=O)N2C1` was tested, and the “% Inhibition” value was 13% and the Z score was -1.75. In the case of `Cc1ncsc1CCC(=O)Nc1ccc2c(c1)C[C@H](C)O2`, the “% Inhibition” value is reported as -3% and the Z score is reported as 0.62. With `O=C(Nc1cc(Oc2ccc(F)cc2)cc(Oc2ccc(F)cc2)c1)c1cc(-c2ccccc2)nc2ccccc12` the “% Inhibition” value was -14% and the Z score was 2.58. For `CN(Cc1ccsc1)C(=O)CCNc1ccccc1`, the “% Inhibition” value was 4% and the Z score was -0.67. `CS(=O)(=O)N1CCc2nc(NC(=O)c3cccs3)sc2C1` was tested, and the “% Inhibition” value was -11% and the Z score was 1.58. With `COc1ccc(COC2CN(C(=O)COc3ccc(F)cc3)C2)cc1F` the “% Inhibition” value was -14% and the Z score was 2.17. In the case of `COc1ccc(C(C)NCC(C)OC)cc1` (stereo not drawn), the “% Inhibition” value is reported as -3% and the Z score is reported as 0.41. `Cc1ccc(-n2ncc3c(O)c(-c4nc(-c5cccc(Cl)c5)no4)c(=O)[nH]c32)cc1` was tested, and the “% Inhibition” value was 0% and the Z score was -0.01. `Cc1nc(C(=O)OCCOC2CCCCC2C)cs1` (stereo not drawn) was tested, and the “% Inhibition” value was -7% and the Z score was 0.65. With `COc1ccc(C(=O)Nc2ccsc2-c2nc(-c3ccc(C)cc3)no2)cc1` the “% Inhibition” value was 2% and the Z score was -0.24. In the case of `COc1cccc(-c2ncc(CNC(=O)COC[C@H]3CCCO3)s2)c1`, the “% Inhibition” value is reported as -12% and the Z score is reported as 1.26. In the case of `CCc1nc2c(c(N[C@@H](CC)c3nc(C)c(C)s3)n1)CCNCC2`, the “% Inhibition” value is reported as -2% and the Z score is reported as 0.27. In the case of `Cc1cnc(N)c(S(=O)(=O)N2CCC[C@@H]2COc2ccc(F)cc2)c1`, the “% Inhibition” value is reported as -7% and the Z score is reported as 1.28. In the case of `Cc1occc1CN(C)C(=O)c1ccc(S(N)(=O)=O)o1`, the “% Inhibition” value is reported as 16% and the Z score is reported as -1.81. For `Cc1ccc(-c2c(CN3CCN(c4ccc(F)cc4)CC3)csc2C)cc1`, the “% Inhibition” value was 6% and the Z score was -1.09. In the case of `FC(F)(F)c1cnc(N2CCn3ccnc3C2)s1`, the “% Inhibition” value is reported as -1% and the Z score is reported as 0.11. For `CN(Cc1cn(C)nn1)CC1CCOCC1`, the “% Inhibition” value was -11% and the Z score was 2.06. In the case of `CN(CC(O)c1ccccc1)C(=O)CC1(c2ccccc2)CC(=O)N(CC2CCCCC2)C1=O` (stereo not drawn), the “% Inhibition” value is reported as -13% and the Z score is reported as 2.53. For `CCN(Cc1noc(C(C)C)n1)C1CC1`, the “% Inhibition” value was -18% and the Z score was 2.02. With `COc1nn(C)cc1C(=O)Nc1cc(C)ns1` the “% Inhibition” value was 4% and the Z score was -0.66. `CCN(CC)C(=O)c1sc2c(c1C)c(=O)n(CCc1ccccc1)c(=O)n2Cc1cccc(C)c1` was tested, and the “% Inhibition” value was -13% and the Z score was 1.55. In the case of `O=C(Cc1ccc(NC(=O)C23CCCN2CCC3)cc1)N1CCOCC1`, the “% Inhibition” value is reported as -4% and the Z score is reported as 0.36. With `CNC(=O)N(C)CCc1noc(-c2ccc(C)cc2)n1` the “% Inhibition” value was -4% and the Z score was 0.78. With `CCS(=O)(=O)NCCN(C1CCC(C)CC1)C1CCC(O)CC1` (stereo not drawn) the “% Inhibition” value was -2% and the Z score was 0.31. `Clc1cccnc1OC1CCC(NCc2cnn3ccccc23)CC1` (stereo not drawn) was tested, and the “% Inhibition” value was -11% and the Z score was 1.58. With `COc1ccc(C2C(C(=O)N3CCN(Cc4ccccc4)CC3)c3ccccc3C(=O)N2c2ccc(OC)cc2)cc1` (stereo not drawn) the “% Inhibition” value was -3% and the Z score was 0.29. In the case of `O=C(NCCN1CCCC1=O)c1ccc(-c2cccc(Cl)c2Cl)cc1`, the “% Inhibition” value is reported as 2% and the Z score is reported as -0.44. `CCOC(=O)Cc1nnc(CNc2ccc(F)cc2)[nH]1` was tested, and the “% Inhibition” value was 27% and the Z score was -3.09. For `O=C(CN(c1ccccc1F)C1CCCC1)c1c[nH]c(C(=O)N2CCCC2)c1`, the “% Inhibition” value was -7% and the Z score was 1.41. For `COC[C@@H](O)CN(C)Cc1ccc(Br)cc1Cl`, the “% Inhibition” value was -5% and the Z score was 0.77. For `CC[C@@H](CNc1nccnc1N(C)C)N1CCOCC1`, the “% Inhibition” value was -3% and the Z score was 0.67. For `Cn1cc(C2CCCCN2C(=O)C2COc3ccccc3O2)cn1` (stereo not drawn), the “% Inhibition” value was 10% and the Z score was -1.64. With `Cc1nn(-c2ncnc3[nH]cnc23)c2c1[C@@]1(CC(=O)N2)C(=O)N(CCC(C)C)c2ccccc21` the “% Inhibition” value was -9% and the Z score was 1.06. For `COc1ccc(CN2CCC[C@@]3(CCN(C(=O)C(C)C)C3)C2)c(OC)c1`, the “% Inhibition” value was -12% and the Z score was 1.83. For `COCCc1noc([C@H](C)NC(=O)Cc2ccc(O)c(Cl)c2)n1`, the “% Inhibition” value was -28% and the Z score was 2.8. `Cc1cccc(CN2CCN(Cc3cccc(C)n3)[C@@H](CCO)C2)n1` was tested, and the “% Inhibition” value was -2% and the Z score was 0.35. With `CNc1nc(C)c(C(=O)NCCc2nc(C)c3c(n2)CCCC3)s1` the “% Inhibition” value was -9% and the Z score was 1.63. `CC1Cc2ccccc2N1CCNC(=O)NCC1COCCO1` (stereo not drawn) was tested, and the “% Inhibition” value was 17% and the Z score was -1.99. With `CCN1CC[C@H](CNC(=O)c2cc(C)c3nc(N)sc3c2)C1` the “% Inhibition” value was -5% and the Z score was 0.62. In the case of `CC1CCN(CC2CCCN(C(=O)C(C)Oc3cccnc3)C2)CC1` (stereo not drawn), the “% Inhibition” value is reported as -8% and the Z score is reported as 1.09. In the case of `CCS(=O)(=O)N1CCCC(C(=O)N2CCC[C@@H](O)C2)C1` (stereo partly drawn), the “% Inhibition” value is reported as -12% and the Z score is reported as 1.47. For `CCCc1ccc(CN2CCC3(CCC(=O)N(CCc4ccncc4)C3)CC2)o1`, the “% Inhibition” value was 6% and the Z score was -0.83. For `O=S(=O)(CC1CCOC2(CCOCC2)C1)NCC1CC=CCC1` (stereo not drawn), the “% Inhibition” value was 4% and the Z score was -0.73. In the case of `COc1c(C)cc(NC(=O)N(C)C[C@H]2CC(=O)N(C)C2)cc1C`, the “% Inhibition” value is reported as 1% and the Z score is reported as -0.27. In the case of `COc1cc2c(cc1OC)CN(C(=O)CN(C)[C@@H](C)c1ccccc1)CC2`, the “% Inhibition” value is reported as -6% and the Z score is reported as 0.92. With `COc1cc(NC(=O)N2CCC[C@H]2C2CCC2)c(OC)c(C)c1OC` the “% Inhibition” value was -3% and the Z score was 0.51. In the case of `COc1cc(OC)cc(N2CC(C(=O)N3CC(C)[S+]([O-])C(C)C3)CC2=O)c1` (stereo not drawn), the “% Inhibition” value is reported as -4% and the Z score is reported as 0.51. `Cc1nc2c(c(=O)n1C)CN(C(=O)Cc1ccncc1)C2` was tested, and the “% Inhibition” value was -12% and the Z score was 1.97. With `O=S1(=O)C[C@@H]2[C@H](C1)N(c1ncccn1)CCN2Cc1ccc2occc2c1` the “% Inhibition” value was 2% and the Z score was -0.3. In the case of `CC(=O)N[C@@H]1C[C@H](Cc2ccccc2)O[C@H](c2nccs2)C1`, the “% Inhibition” value is reported as -6% and the Z score is reported as 0.66. With `O=C(c1cc(O)cc(O)c1)N1CCN(CC(F)(F)C(F)F)CC1` the “% Inhibition” value was -34% and the Z score was 5.4. `O=S(=O)(N[C@H]1CCCC[C@@H]1O)c1ccc(F)c(Br)c1` was tested, and the “% Inhibition” value was -11% and the Z score was 1.34.
